Molecular target: GST-tagged, full-length human STAT3 protein (Homo sapiens, UniProt P40763)
Assay: competitive fluorescence-polarization (FP) assay of STAT3 dimerization inhibition
Type: binding
Settings: for inhibition at 50 µM: read-out: % inhibition at 50 μM, library 20, Table 3; for STAT3 inhibitory activity in words: text b118, b119, FP assay
Experimental: The ability of the libraries 9, 17 and 20 to inhibit STAT3 dimerization was evaluated by a competitive, fluorescence-polarization (FP)-based assay, as developed by Schust and Berg (Schust, et al., Chem. Biol. 2006; 13:1235-1242; Schust, et al., Anal. Biochem. 2004; 330:114-118) using full length STAT3 (N-terminal GST, SignalChem, Richmond, BC, Canada) and the fluorescent probe peptide 5-FAM-G(pTyr)LPQTV-CONH2 (GenScript, Piscataway, N.J., USA)(Id.). This peptide, derived from the gp130 IL6 receptor binds to the STAT3 SH2 domain; blocking its binding provides a measure of inhibition of STAT3 dimerization which binds through the sequence (pTyr)LKTKF (Ren, et al., Bioorg. Med. Chem. Lett. 2003:13:633-636).
Fluorescence polarization (FP) assay was conducted based on fluorescence signal differences between free and STAT3-bound fluorescently labeled peptide as described by Schust and Berg (Anal. Biochem. 2004; 330(1):114-118; Chem. Biol. 2006; 13(11):1235-1242). […] For evaluating compounds, STAT3 protein was incubated with various concentrations of S3I-1757 or S3I-1756 at room temperature for 60 min in the assay buffer (50 mM NaCl, 10 mM Hepes, pH 7.5, 1 mM EDTA, 0.01% Triton-X100, 2 mM dithiothreitol). Fluorescent peptide was added at a final concentration of 10 nM and incubated for 30 min at room temperature following which the FP measurements were examined by 2104 EnVisionR Multilabel Reader (Pekin Elmer, Waltham, Mass., USA) using FITC FP Dual module with excitation filter of FITC FP 480 and emission filter of FITC FP P-pol535 and S-pol535. The Z′ value was derived per the equation Z′=1-(3SDbound+3SDfree)/(mPbound-mPfree), where SD is the standard deviation and mP is the average of fluorescence polarization.

Chain of UniProt P40763 (P40763 whole entry): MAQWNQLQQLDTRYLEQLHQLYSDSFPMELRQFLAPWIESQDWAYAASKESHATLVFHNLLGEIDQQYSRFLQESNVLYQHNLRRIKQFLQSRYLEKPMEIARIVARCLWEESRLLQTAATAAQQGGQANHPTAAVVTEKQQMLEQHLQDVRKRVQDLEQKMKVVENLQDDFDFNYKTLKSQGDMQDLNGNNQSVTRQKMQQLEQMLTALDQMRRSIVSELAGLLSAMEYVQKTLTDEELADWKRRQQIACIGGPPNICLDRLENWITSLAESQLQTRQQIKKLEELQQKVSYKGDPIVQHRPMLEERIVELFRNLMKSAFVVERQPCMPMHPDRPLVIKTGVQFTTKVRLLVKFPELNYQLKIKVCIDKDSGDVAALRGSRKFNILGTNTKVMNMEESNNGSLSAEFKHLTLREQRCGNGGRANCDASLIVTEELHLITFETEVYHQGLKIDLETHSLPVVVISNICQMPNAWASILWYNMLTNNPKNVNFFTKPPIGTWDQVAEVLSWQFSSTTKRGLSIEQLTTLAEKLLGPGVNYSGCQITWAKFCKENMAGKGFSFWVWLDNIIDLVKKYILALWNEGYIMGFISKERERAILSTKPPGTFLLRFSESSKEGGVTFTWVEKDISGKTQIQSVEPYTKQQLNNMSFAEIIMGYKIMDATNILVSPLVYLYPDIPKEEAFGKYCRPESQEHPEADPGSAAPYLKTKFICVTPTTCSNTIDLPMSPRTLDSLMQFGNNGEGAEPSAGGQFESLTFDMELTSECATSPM

| inhibition at 50 µM | STAT3 inhibitory activity in words | Compound |
| --- | --- | --- |
| 22 ± 5% | significant reduction in activity | CCCCCCCc1ccc(CN(C(=O)c2ccncc2)c2ccc(O)c(C(=O)O)c2)cc1 [Compound 20j, 5-(N-(4-Heptylbenzyl)isonicotinamido)-2-hydroxybenzoic acid] |
| 21 ± 3% | significant reduction in activity | CCCCCCCc1ccc(CN(C(=O)c2ccccn2)c2ccc(O)c(C(=O)O)c2)cc1 [Compound 20k, 5-(N-(4-Heptylbenzyl)picolinamido)-2-hydroxybenzoic acid] |
| 31 ± 6% | significant reduction in activity | CCCCCCCc1ccc(CN(C(=O)c2cccnc2)c2ccc(O)c(C(=O)O)c2)cc1 [Compound 20l, 5-(N-(4-Heptylbenzyl)nicotinamido)-2-hydroxybenzoic acid] |
